In the antibiotic and cytotoxicity screens of Wong et al. (2023):
This is one part of the list.

Columns and labels:
HSkMC = human skeletal muscle cells; assay: cytotoxicity call (relative viability < 0.9); details: 10 µM
HepG2 = assay: cytotoxicity call (relative viability < 0.9); details: 10 µM
S. aureus RN4220 = assay: growth inhibition call (relative growth <= 0.2); details: 50 µM

Structure (SMILES)	cytotoxicity call (HSkMC)	cytotoxicity call (HepG2)	growth inhibition call (S. aureus RN4220)
C[C@H](CO)N1C[C@H](C)[C@@H](CN(C)Cc2ccc(-c3ccccc3)cc2)Oc2ccc(NC(=O)C3CCCCC3)cc2CC1=O	inactive	inactive	inactive
C[C@H]1CC/C=C\[C@H]2O[C@@]34C=CCN(Cn5nnc6ccccc65)C(=O)[C@H]3N(CCCCCCO)C(=O)[C@@H]4[C@@H]2C(=O)O1	inactive	inactive	inactive
CC(C)NC(=O)N(C)C[C@H]1OCCCC[C@@H](C)Oc2ccc(NC(=O)Nc3ccc(F)cc3)cc2C(=O)N([C@H](C)CO)C[C@@H]1C	inactive	inactive	inactive
COc1cccc(NC(=O)C[C@@H]2CC[C@@H]3[C@@H](COc4ccc(NC(=O)C5CCOCC5)cc4C(=O)N3C)O2)c1	inactive	inactive	inactive
Cc1noc(C)c1S(=O)(=O)N(C)C[C@@H]1OCc2cnnn2CCCC(=O)N([C@@H](C)CO)C[C@H]1C	inactive	inactive	inactive
COc1ccc(S(=O)(=O)Nc2ccc3c(c2)C(=O)N([C@@H](C)CO)C[C@@H](C)[C@H](CN(C)S(=O)(=O)c2cccs2)O3)cc1	inactive	inactive	inactive
C[C@H]1CN([C@@H](C)CO)C(=O)Cc2cc(NC(=O)CCC(F)(F)F)ccc2O[C@H]1CN(C)S(C)(=O)=O	inactive	inactive	inactive
CO[C@@H]1CN(C)C(=O)c2cc(NC(=O)C3CCOCC3)ccc2OC[C@@H](C)N(C(=O)Nc2ccc(C(F)(F)F)cc2)C[C@H]1C	inactive	inactive	active
COc1ccc(NC(=O)N(C)C[C@H]2Oc3ccc(NS(C)(=O)=O)cc3CC(=O)N([C@H](C)CO)C[C@H]2C)cc1	inactive	inactive	inactive
Cc1noc(C)c1NC(=O)Nc1ccc2c(c1)C(=O)N([C@H](C)CO)C[C@H](C)[C@H](CN(C)Cc1ccc(Cl)c(Cl)c1)O2	inactive	inactive	inactive
C[C@@H]1CN([C@H](C)CO)C(=O)Cc2cc(NC(=O)Cc3cn(C)c4ccccc34)ccc2O[C@H]1CN(C)CC1CCCCC1	inactive	inactive	inactive
CO[C@H]1[C@H](O)[C@@H](O)[C@H](O)[C@H](O)[C@@H]1O	inactive	inactive	inactive
C[C@H](CO)N1C[C@H](C)[C@H](CN(C)C(=O)Nc2ccc(F)cc2)Oc2ccc(NS(C)(=O)=O)cc2C1=O	inactive	inactive	inactive
COc1cccc(S(=O)(=O)N[C@H]2CC[C@@H](CC(=O)NC3CCC3)O[C@@H]2CO)c1	inactive	inactive	inactive
CC(C)(C)OC(=O)C[C@@H]1CC=CC[C@@H](CC(=O)N[C@H](CO)Cc2ccccc2)C(=O)N[C@@H](C(C)(C)C)COC1=O	inactive	inactive	inactive
COCC(=O)N1CCN2C[C@H](C(=O)O)CN(Cc3ccoc3)C[C@@H]2C1	inactive	inactive	inactive
C[C@H](O)C#Cc1ccc2c(c1)O[C@H](CN(C)C(=O)Cc1ccccn1)[C@@H](C)CN([C@H](C)CO)S2(=O)=O	inactive	inactive	inactive
C[C@@H](O)[C@H](N)C(=O)O	inactive	active	inactive
C[C@H](CO)N1C[C@H](C)[C@H](CN(C)S(=O)(=O)c2ccccc2)OCCCC[C@H](C)Oc2ccc(NC(=O)NC3CCCCC3)cc2C1=O	inactive	active	inactive
N#Cc1nn(-c2ccccc2)c(=O)[nH]c1=O	inactive	inactive	inactive
CNC[C@@H]1Oc2ccc(NC(=O)Cn3cnnn3)cc2C(=O)N([C@H](C)CO)C[C@@H]1C	inactive	inactive	inactive
Cc1ccc(S(=O)(=O)Nc2ccc3c(c2)C(=O)N([C@H](C)CO)C[C@@H](C)[C@@H](CN(C)Cc2ccc(C(F)(F)F)cc2)OCCCC[C@@H](C)O3)cc1	inactive	inactive	inactive
C[C@H]1CN([C@@H](C)CO)C(=O)c2cc(NC(=O)Nc3ccccc3)ccc2O[C@@H]1CN(C)S(=O)(=O)c1cn(C)cn1	inactive	inactive	inactive
O=C(C[C@H]1CC[C@H]2[C@@H](COC[C@@H](O)CN2Cc2ccccc2F)O1)N[C@@H]1CCN(Cc2ccccc2)C1	inactive	inactive	inactive
O=C(N[C@@H]1C=C[C@@H](CC(=O)N2CCOCC2)O[C@H]1CO)c1ccc2c(c1)OCO2	inactive	inactive	inactive
C[C@@H]1CCCCO[C@@H](CN(C)Cc2ccc(Cl)c(Cl)c2)[C@H](C)CN([C@@H](C)CO)C(=O)c2cc(NC(=O)CCC(F)(F)F)ccc2O1	inactive	inactive	inactive
Cc1ccc(S(=O)(=O)Nc2cccc3c2O[C@@H](CN(C)Cc2ccc(-c4ccccc4)cc2)[C@@H](C)CN([C@H](C)CO)C3=O)cc1	inactive	active	inactive
C[C@@H]1CN([C@@H](C)CO)C(=O)Cc2cc(NC(=O)C3CCCCC3)ccc2O[C@H]1CN(C)Cc1ccc(C(F)(F)F)cc1	inactive	inactive	inactive

Structure (SMILES)	cytotoxicity call (HSkMC)	cytotoxicity call (HepG2)	growth inhibition call (S. aureus RN4220)
CC(C)NC(=O)Nc1cccc2c1O[C@H](CN(C)S(=O)(=O)c1ccc(Cl)cc1)[C@H](C)CN([C@H](C)CO)C2=O	inactive	inactive	inactive
Cc1noc(C)c1NC(=O)N(C)C[C@H]1Oc2ccc(NC(=O)CCN3CCOCC3)cc2CC(=O)N([C@@H](C)CO)C[C@H]1C	inactive	inactive	inactive
C[C@H](CO)N1C[C@H](C)[C@@H](CN(C)C(=O)Cc2ccccc2)OCCCC[C@H](C)Oc2ccc(NS(=O)(=O)c3ccc(Cl)cc3)cc2C1=O	inactive	inactive	inactive
COc1ccc(S(=O)(=O)Nc2ccc3c(c2)C(=O)N([C@H](C)CO)C[C@H](C)[C@@H](CN(C)C(=O)Nc2ccc(F)cc2)OCCCC[C@H](C)O3)cc1	inactive	inactive	inactive
CO[C@H]1CN(C)C(=O)c2cc(NC(=O)Nc3ccccc3F)ccc2OC[C@@H](C)N(Cc2ccccc2C(=O)O)C[C@@H]1C	inactive	inactive	inactive
C=CCN1C(=O)C[C@@H]2[C@@H]1CCN2c1cnccn1	inactive	inactive	inactive
COc1ccc(NC(=O)N(C)C[C@@H]2Oc3ccc(NC(=O)C4CC4)cc3CC(=O)N([C@H](C)CO)C[C@H]2C)cc1	inactive	inactive	inactive
COc1ccc(O)cn1	inactive	inactive	inactive
CC(C)NC(=O)Nc1ccc2c(c1)C(=O)N([C@H](C)CO)C[C@H](C)[C@H](CN(C)Cc1ccc(C(=O)O)cc1)O2	inactive	inactive	inactive
O=C(CN1CCOCC1)NCC[C@@H]1CC[C@@H](NS(=O)(=O)c2ccc(F)cc2)[C@@H](CO)O1	inactive	inactive	inactive
O=C(O)C1CCCN1 (stereo not given)	inactive	inactive	inactive
COc1ccc(NC(=O)N(C)C[C@H]2Oc3c(NC(=O)c4cnccn4)cccc3C(=O)N([C@@H](C)CO)C[C@H]2C)cc1	inactive	inactive	inactive
O=C(Nc1ccc(C(F)(F)F)cc1)Nc1ccc2c(c1)[C@@H]1C[C@@H](CC(=O)N3CCc4ccccc4C3)O[C@@H](CO)[C@@H]1O2	inactive	inactive	inactive
COc1ccc(S(=O)(=O)Nc2ccc3c(c2)CC(=O)N([C@@H](C)CO)C[C@@H](C)[C@H](CN(C)Cc2ccc(Oc4ccccc4)cc2)O3)cc1	inactive	inactive	inactive
C[C@H]1CCCCO[C@H](CN(C)C(=O)Nc2ccccc2)[C@@H](C)CN([C@@H](C)CO)C(=O)c2cc(NS(=O)(=O)c3ccc(Cl)cc3)ccc2O1	inactive	inactive	inactive
C[C@H](CO)N1C[C@H](C)[C@H](CN(C)CC2CC2)Oc2cc(C#Cc3cccc(F)c3)ccc2S1(=O)=O	inactive	inactive	inactive
CCc1cnc2c(c1OC)c(=O)n(CC(=O)NCCOC)c(=O)n2C	inactive	inactive	inactive
COc1ccc(S(=O)(=O)Nc2ccc3c(c2)CC(=O)N([C@H](C)CO)C[C@H](C)[C@H](CN(C)C(=O)Nc2c(C)noc2C)O3)cc1	inactive	inactive	inactive
C[C@H]1CCCCO[C@@H](CN(C)Cc2ccccc2)[C@@H](C)CN([C@@H](C)CO)C(=O)c2cc(NC(=O)Nc3cccc4ccccc34)ccc2O1	active	active	inactive
C[C@@H]1CN([C@@H](C)CO)C(=O)c2cc(NC(=O)Nc3ccc(F)cc3)ccc2O[C@@H](C)CCCCO[C@H]1CN(C)Cc1ccc(Cl)c(Cl)c1	inactive	inactive	inactive
O=C1C2C[C@H]3C=C[C@]2(CN1C1CC1)O3 (stereo not given in full)	inactive	inactive	inactive
COc1ccc(NC(=O)Nc2ccc3c(c2)C(=O)N([C@@H](C)CO)C[C@H](C)[C@@H](CN(C)C(=O)Cc2ccccc2)OCCCC[C@H](C)O3)cc1	inactive	inactive	inactive
COc1ccc(NC(=O)Nc2ccc3c(c2)C(=O)N([C@H](C)CO)C[C@H](C)[C@H](CN(C)C(=O)C2CCCCC2)OCCCC[C@@H](C)O3)cc1	inactive	inactive	inactive
C[C@@H]1CCCCO[C@@H](CN(C)C(=O)Nc2ccc(C(F)(F)F)cc2)[C@H](C)CN([C@H](C)CO)C(=O)c2cc(NC(=O)NC3CCCCC3)ccc2O1	inactive	active	inactive
C[C@H](CO)N1C[C@H](C)[C@H](CN(C)C(=O)Nc2ccccc2)OCCCC[C@H](C)Oc2ccc(NC(=O)C3CCCCC3)cc2C1=O	inactive	inactive	inactive
C[C@@H]1CN([C@H](C)CO)S(=O)(=O)c2ccc(C#C[C@@H](C)O)cc2O[C@H]1CN(C)C(=O)CN(C)C	inactive	inactive	inactive
Cc1ccc(S(=O)(=O)Nc2ccc3c(c2)CC(=O)N([C@H](C)CO)C[C@H](C)[C@H](CN(C)C(=O)NC(C)C)O3)cc1	inactive	inactive	inactive
